From the antibiotic and cytotoxicity screens of Wong et al. (2023) come the findings set out here.

This is one part of the list.

Test [1] concerns HSkMC (human skeletal muscle cells). Nature of the test: cytotoxicity call (relative viability < 0.9). The following applies: 10 µM.
The test system of test [2] is HepG2. Nature of the test: cytotoxicity call (relative viability < 0.9). Conditions: 10 µM.
In test [3] the test system is S. aureus RN4220. Description: growth inhibition call (relative growth <= 0.2). The following applies: 50 µM.

Consider `CCOC(=O)CCC(=O)O[C@H]1[C@H](O[C@@H]2[C@@H](C)[C@H](O[C@H]3C[C@@](C)(OC)[C@@H](O)[C@H](C)O3)[C@@H](C)C(=O)O[C@H](CC)[C@@](C)(O)[C@H](O)[C@@H](C)C(=O)[C@H](C)C[C@@]2(C)O)O[C@H](C)C[C@@H]1N(C)C`, for which the cytotoxicity call in test [1] and in test [2] was “inactive” throughout. For the same molecule, the growth inhibition call in test [3] is “active”.
With `C[C@H]1CN([C@@H](C)CO)C(=O)c2c(c3ccccc3n2C)-c2ccccc2CO[C@@H]1CN(C)C(=O)Nc1ccc(-c2ccccc2)cc1`, the cytotoxicity call in test [1] and in test [2] was “inactive” in each case. In addition, in test [3], the growth inhibition call was “inactive”.
In the case of `COc1ccc(-c2cc(=O)c3c(OC)c(OC)c(OC)c(OC)c3o2)cc1`, the cytotoxicity call in test [1] and in test [2] was “inactive” each time. In test [3], the growth inhibition call is “inactive”.
As to `Cn1cnc(S(=O)(=O)N[C@@H]2C=C[C@@H](CC(=O)N3CCN(c4ccccc4)CC3)O[C@H]2CO)c1`, the cytotoxicity call in test [1] and in test [2] was “inactive” in each case. Also, in test [3], the growth inhibition call was “inactive”.
`C[C@@H]1CCCCO[C@@H](CN(C)C(=O)Nc2ccc(F)cc2)[C@H](C)CN([C@@H](C)CO)C(=O)c2cc(NC(=O)Nc3ccc4c(c3)OCO4)ccc2O1`: the cytotoxicity call in test [1] and in test [2] was “inactive” in each case. Further, the growth inhibition call in test [3] was “inactive”.
On to `CO[C@@H](C(=O)N(C)C[C@H]1OCc2ccccc2-c2c(n(C)c3ccccc23)C(=O)N([C@H](C)CO)C[C@@H]1C)c1ccccc1`, for which the cytotoxicity call in test [1] and in test [2] was “inactive” in each case. Also, in test [3], the growth inhibition call is “inactive”.
Take `C[C@@H]1CN([C@H](C)CO)S(=O)(=O)c2ccc(C#Cc3ccccc3)cc2O[C@H]1CN(C)S(=O)(=O)c1cn(C)cn1`: the cytotoxicity call in test [1] and in test [2] was “inactive” in each case. For the same molecule, the growth inhibition call in test [3] was “inactive”.
On to `C[C@@H]1CN([C@H](C)CO)S(=O)(=O)c2ccc(-c3cccnc3)cc2O[C@H]1CN(C)C(=O)NC1CCCC1`, for which the cytotoxicity call in test [1] and in test [2] was “inactive” throughout. Moreover, the growth inhibition call in test [3] was “inactive”.
Regarding `COc1ccc(NC(=O)N(C)C[C@@H]2OCCCC[C@H](C)Oc3ccc(NS(=O)(=O)c4ccc(F)cc4)cc3C(=O)N([C@H](C)CO)C[C@H]2C)cc1`, the cytotoxicity call in test [1] and in test [2] was “inactive” each time. Also, the growth inhibition call in test [3] was “inactive”.
For `CCC1C=C2C(=O)OC(=O)C2CC2=C(C(=O)OC2=O)C(O)C1CC` (centres undefined), the cytotoxicity call in test [1] and in test [2] was “inactive” throughout. Besides, the growth inhibition call in test [3] was “inactive”.
Regarding `CCS(=O)(=O)Nc1ccc2c(c1)C(=O)N(C)C[C@@H](OC)[C@H](C)CN(CCC(F)(F)F)[C@@H](C)CO2`, the cytotoxicity call in test [1] and in test [2] was “inactive” in each case. The growth inhibition call in test [3] was “inactive”.
In the case of `CCC[C@@H]1C[C@@H](C(=O)N[C@@H]([C@H]2O[C@H](SC)[C@H](OP(=O)(O)O)[C@@H](O)[C@H]2O)[C@H](C)Cl)N(C)C1`, the cytotoxicity call in test [1] and in test [2] was “inactive” throughout. The growth inhibition call in test [3] is “inactive”.
Consider `CN([NH2+][O-])c1ccc(O)c(O)c1`, for which the cytotoxicity call in test [1] and in test [2] was “inactive” each time. The growth inhibition call in test [3] is “inactive”.
With `CCOC(=O)/C(C#N)=C1/C=CN(C)C=N1`, the cytotoxicity call in test [1] is “inactive”. The cytotoxicity call in test [2] is “active”. Further, the growth inhibition call in test [3] is “inactive”.
For the molecule `C[C@@H]1CN([C@H](C)CO)C(=O)c2cc(NS(C)(=O)=O)ccc2O[C@@H](C)CCCCO[C@H]1CN(C)S(=O)(=O)c1ccccc1`, the cytotoxicity call in test [1] and in test [2] was “inactive” throughout. Besides, the growth inhibition call in test [3] is “inactive”.
In the case of `CN1CCCC(n2nc(Cc3ccc(Cl)cc3)c3ccccc3c2=O)CC1.Cl` (centres undefined), the cytotoxicity call in test [1] and in test [2] was “inactive” in each case. For the same molecule, the growth inhibition call in test [3] was “inactive”.
Regarding `Cc1ccnc(NC(=O)Cn2cnc3c2c(=O)n(C)c(=O)n3C)n1`, the cytotoxicity call in test [1] and in test [2] was “inactive” in each case. The growth inhibition call in test [3] is “inactive”.
For `COc1ccc(S(=O)(=O)N[C@@H]2C=C[C@H](CC(=O)NCCc3ccncc3)O[C@H]2CO)cc1`, the cytotoxicity call in test [1] and in test [2] was “inactive” in each case. The growth inhibition call in test [3] was “inactive”.
As to `O=C(O[C@H]1[C@H](O)[C@@H](CO)O[C@H](c2c(O)cc(O)c(C(=O)c3ccc(O)cc3)c2O)[C@H]1OC(=O)c1cc(O)c(O)c(O)c1)c1cc(O)c(O)c(O)c1`, in test [1], the cytotoxicity call is “inactive”. For the same molecule, in test [2], the cytotoxicity call is “active”. Moreover, in test [3], the growth inhibition call is “inactive”.
On to `O=C(C[C@@H]1CC[C@@H]2[C@H](COC[C@H](O)CN2S(=O)(=O)c2ccccc2Cl)O1)NCCc1ccncc1`, for which the cytotoxicity call in test [1] and in test [2] was “inactive” in each case. The growth inhibition call in test [3] was “inactive”.
Turning to `Cc1noc(C)c1S(=O)(=O)Nc1ccc2c(c1)C(=O)N([C@@H](C)CO)C[C@@H](C)[C@H](CN(C)Cc1ccc(C(F)(F)F)cc1)OCCCC[C@H](C)O2`, the cytotoxicity call in test [1] and in test [2] was “inactive” throughout. In test [3], the growth inhibition call is “inactive”.
For `C[C@H]1CCCCO[C@@H](CN(C)Cc2ccccc2)[C@@H](C)CN([C@@H](C)CO)C(=O)c2cc(NC(=O)Nc3cccc4ccccc34)ccc2O1`, the cytotoxicity call in test [1] and in test [2] was “active” each time. Also, the growth inhibition call in test [3] was “inactive”.
Turning to `O=C(C[C@@H]1CC[C@@H]2NC[C@H](O)COC[C@H]2O1)NCCN1CCCC1`, the cytotoxicity call in test [1] and in test [2] was “inactive” in each case. Also, the growth inhibition call in test [3] is “inactive”.
As for `Cc1ccc(S(=O)(=O)Nc2ccc3c(c2)C(=O)N([C@@H](C)CO)C[C@H](C)[C@@H](CN(C)Cc2ccc(C(F)(F)F)cc2)OCCCC[C@@H](C)O3)cc1`, the cytotoxicity call in test [1] and in test [2] was “active” in each case. Besides, the growth inhibition call in test [3] is “inactive”.
As to `C[C@@H]1CN([C@@H](C)CO)C(=O)c2cc(NC(=O)Nc3cccc4ccccc34)ccc2O[C@@H]1CN(C)C(=O)Nc1cccc2ccccc12`, the cytotoxicity call in test [1] was “active”. For the same molecule, the cytotoxicity call in test [2] was “inactive”. Also, the growth inhibition call in test [3] is “inactive”.
Take `CC[C@H]1OC(=O)[C@H](C)[C@@H](O[C@H]2C[C@@](C)(OC)[C@@H](O)[C@H](C)O2)[C@H](C)[C@@H](O[C@@H]2O[C@H](C)C[C@H](N(C)C)[C@H]2O)[C@](C)(O)C[C@@H](C)CN(C)[C@H](C)[C@@H](O)[C@]1(C)O`: the cytotoxicity call in test [1] and in test [2] was “inactive” in each case. In test [3], the growth inhibition call is “inactive”.
Regarding `COc1ccc(CN(C)C[C@H]2OCCCC[C@H](C)Oc3ccc(NC(=O)Nc4ccc(OC)cc4)cc3C(=O)N([C@@H](C)CO)C[C@@H]2C)cc1`, the cytotoxicity call in test [1] was “inactive”. For the same molecule, the cytotoxicity call in test [2] is “active”. In test [3], the growth inhibition call is “inactive”.
Consider `COc1ccc(NC(=O)Nc2ccc3c(c2)[C@H]2C[C@H](CC(=O)NCc4ccncc4)O[C@@H](CO)[C@H]2O3)cc1`, for which the cytotoxicity call in test [1] and in test [2] was “inactive” each time. In test [3], the growth inhibition call is “inactive”.
